Measured values taken from PubChem BioAssay AID686970 (National Center for Advancing Translational Sciences (NCATS), 2013).
Out of some 360,000 compounds screened, about 6,000 (1.7%) were called active. The shares of active, inactive and inconclusive entries below differ from those in the screen. The call rests on the fitted dose curve; in most records, active means well fitted cell-killing curve with a large enough effect; inconclusive means small, poorly fitted or top-dose-only effect, or effect the other way; inactive means flat fitted curve, though single readings scatter. No potency is given beside an inconclusive call; the fits are too rough.

Assay: qHTS for induction of synthetic lethality in tumor cells producing 2HG: qHTS for the HT-1080-NT fibrosarcoma cell line;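 further: NT is the 2HG producing partner of a matched IDH1 knockdown line; nearly all actives have a fitted effect of over 55% in size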;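 on activity, negative = less viability: 0% = DMSO-treated cells and -100% = media-only wells without cells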
Details: HT-1080-NT fibrosarcoma viability, CellTiter-Glo ATP luminescence, 48 h; activity, negative = less viability: at 46.1 µM (top of the series) unless noted
In short: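 A 48-hour cytotoxicity screen used HT-1080-NT cells plated 2 hours before compound delivery. ATP-based CellTiter-Glo luminescence measured viability, normalized to DMSO and no-cell controls.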
Potency means the concentration at half of the fitted maximal effect; tags describe the fitted curve by direction and shape.

SMILES	Potency	activity, negative = less viability
Cc1cc(-c2nnc(SCC(=O)Nc3nc(-c4ccc(Cl)cc4)cs3)o2)no1	inconclusive [cytotoxic, single point]	–
Cc1cc(C)cc(NS(=O)(=O)c2ccc(NC(=S)NC(=O)c3ccc(Br)o3)cc2)c1	inconclusive [cytotoxic, single point]	–
CCN(CC)c1cc(C)c2cc(NC(=O)c3cccs3)ccc2n1	inconclusive [cytotoxic, single point]	–
Cn1c(=O)c(=O)n(C)c2cc(N3CCCCC3)c(NS(=O)(=O)c3ccc(Br)cc3)cc21	inactive	–
CC1(C(=O)NS(=O)(=O)c2ccc(F)cc2F)CCN1C(=O)C1(c2ccc(Cl)cc2)CC1 (stereo not drawn)	inactive	–
CCc1nc2c(OCC=C(C)C)cccn2c1N(C)C(=O)c1ccccc1F	inconclusive [cytotoxic, single point]	–
FC(F)(F)c1cccc(-c2cc3ccccc3nc2N2CCCC2)c1	inconclusive [cytotoxic, partial curve]	–
N/C(COc1cc(Cl)cc(Cl)c1)=N\O	inactive	–
C=CCOc1ccccc1CNc1ccc2c(c1)OCCO2	inconclusive [cytotoxic, single point]	–
Clc1cccc(CN2CCc3c([nH]c4ccccc34)C2)c1	inconclusive [cytotoxic, single point]	–
CC(=O)Nc1cccc(-c2ccnc3c2CC(C(=O)Nc2ccc4c(c2)OCO4)O3)c1 (stereo not drawn)	inconclusive [cytotoxic, full curve]	–
COC(=O)C(C(=O)OC)c1ccc(N)cc1	inconclusive [rising, single point]	–
Clc1ccc(Nc2nc(NCCN3CCOCC3)nc(N3CCOCC3)n2)cc1	inconclusive [cytotoxic, partial curve]	–
O=C(CNC(=O)C1CCCCC1)OCC(=O)c1cccc(Cl)c1	inactive	–
Cc1cccc(CN2C(=O)c3ccccc3Sc3ccc(C(=O)NCCN4CCOCC4)cc32)c1	inconclusive [cytotoxic, partial curve]	–
NC(CO)c1csc(Nc2ccc(C(=O)c3ccccc3)cc2)n1 (stereo not drawn)	inconclusive [cytotoxic, single point]	–
CN(C)c1ccc(/C=[N+](\[O-])C2N(c3ccccc3)C(=S)SC2(C)C)cc1 (stereo not drawn)	inactive	–
O=C(Nc1cc(F)c(Br)cc1F)c1ccc(Cl)cc1	inconclusive [rising, partial curve, poor fit]	–
O=C(c1ccc([N+](=O)[O-])cc1)N1CCN(c2cccc3[nH]ccc23)CC1	inactive	–
Cc1ccc2nc(Cl)c3cc(C(=O)NCCCN4CCCC4)sc3c2c1	active: 18.4 µM	–
Fc1ccc(C(CCNCc2ccccn2)c2ccc(Cl)cc2)cc1 (stereo not drawn)	active: 18.4 µM	–
O=C(NC1CCCCC1)C(c1ccco1)N(Cc1cccs1)C(=O)Cn1nnc2ccccc21 (stereo not drawn)	inconclusive [cytotoxic, partial curve]	–
CCSC(SCC)[C@H](O)[C@@H](O)[C@H](O)[C@H](O)CO	inconclusive [rising, partial curve, poor fit]	–
CCOC(=O)c1c(NC(=O)CN(C)C2CCN(C)CC2)sc(C(=O)Nc2ccccc2)c1C	inconclusive [cytotoxic, partial curve]	–
CCc1cc(-c2n[nH]c(C)c2-c2ccccc2Cl)c(O)cc1OC	inactive	–

SMILES	Potency	activity, negative = less viability
c1ccc(OCCN2CCNCC2)cc1	inactive	–
Cc1oc(-c2ccc3c(c2)OCCO3)cc1C(=O)O	–	inconclusive: -30.7% [cytotoxic]
COc1ccc(NC(=O)C(c2ccnc3ccccc23)n2c(=O)c(-c3ccccc3)nc3ccccc32)cc1 (stereo not drawn)	inactive	–
NC(=O)c1ccc(NC(=O)COC(=O)CCN=C2NS(=O)(=O)c3ccccc32)cc1	inactive	–
CCc1[nH]nc2c1C(c1ccc(Br)s1)C(C#N)=C(N)O2 (stereo not drawn)	inconclusive [cytotoxic, single point]	–
Cc1c(C(=O)OCC(=O)N(C)CC(=O)Nc2ccc(F)cc2)oc2ccccc12	inactive	–
Cc1cccc(C2NC(c3cccc(C)c3)C([N+](=O)[O-])C(C)(C)C2[N+](=O)[O-])c1 (stereo not drawn)	inactive	–
CCOC(=O)C1=C(C)NC(=S)N(C(C)=O)C1c1ccc(Cl)cc1 (stereo not drawn)	inconclusive [cytotoxic, single point]	–
CC(C)(C)c1cccc(Cn2nnc3ccccc32)c1O	inconclusive [cytotoxic, single point]	–
CC(C)(C)c1ccc(C(=O)Oc2ccccc2CCC(=O)O)cc1	inactive	–
Brc1ccc(-c2c(-c3ccsc3)sc3ccccc23)cn1	inconclusive [rising, partial curve, poor fit]	–
CCCCC(=O)N1CCN(c2nc3ccc(F)cc3s2)CC1	inconclusive [cytotoxic, single point]	–
S=C(NN=C(c1ccccc1)c1ccccn1)N(Cc1ccccn1)Cc1ccccn1	active: 16.4 µM	–
COc1ccc(S(=O)(=O)N2CCCC2CNC(=O)C(=O)NCCc2ccccc2)cc1 (stereo not drawn)	inconclusive [cytotoxic, single point]	–
COc1ccccc1C/C(N)=N/OC(=O)c1ccc2c(c1)OCO2	inconclusive [cytotoxic, single point]	–
CC(CNC(=O)CCC(=O)N1CCOc2ccc(Cl)cc21)c1ccccc1 (stereo not drawn)	inactive	–
N#Cc1nc(N)nc(N(c2ccccc2)c2ccccc2)n1	inconclusive [cytotoxic, single point]	–
COc1ccc(-n2nc3cc(C)c(N)c(Br)c3n2)cc1	inconclusive [cytotoxic, partial curve]	–
Cc1ccccc1C(=O)NCCN1CCC(n2c(=O)[nH]c3ccccc32)CC1	inactive	–
N=C1C(c2nc(-c3ccc(F)cc3)cs2)=C(O)CN1Cc1ccc(Cl)cc1	inconclusive [cytotoxic, single point]	–
O=c1cc(N2CCN(c3ccccc3Cl)CC2)[nH]c(=O)n1Cc1ccc(F)cc1	inconclusive [cytotoxic, full curve]	–
Fc1c(F)c(C(F)(F)F)c(F)c(F)c1N/N=C\c1cccs1	inconclusive [cytotoxic, single point]	–
Cc1ccc(-n2nc3c(N4CCC(C(=O)NCc5ccc(C)o5)CC4)nnc(C)c3c2C)cc1	active: 20.6 µM	–
CN1CCC(=C2c3ccccc3CCc3sccc32)CC1	active: 18.4 µM	–
COc1cc2nc(N3CCCCC3)nc(NC(C)C)c2cc1OC	inconclusive [cytotoxic, single point]	–

SMILES	Potency	activity, negative = less viability
COc1ccc(NC(=O)CSCC(=O)N(C)Cc2ccc(Cl)c(Cl)c2)cc1	inactive	–
Cc1ccsc1C(=O)NC(C)c1ccccc1 (stereo not drawn)	inactive	–
Cc1cnc(NC(=O)c2cc3c(s2)CCCC3)s1	inactive	–
CC12CCC(=O)N1C(C(=O)NNC(=O)COc1cccc(C(F)(F)F)c1)CS2 (stereo not drawn)	inactive	–
N=c1n(CCCOc2ccccc2Cl)c2ccccc2n1CC(N)=O	inconclusive [cytotoxic, single point]	–
O=C(COc1ccccc1Cl)NCc1ccco1	inactive	–
COc1ccccc1C(CCN(Cc1ccccc1)C(C)=O)c1ccco1 (stereo not drawn)	inconclusive [cytotoxic, single point]	–
Clc1ccc(C2=Nc3cc(Cl)ccc3OC2)cc1	inactive	–
O=C(NCCCNc1ccc(C(F)(F)F)cc1[N+](=O)[O-])c1cc(F)c(F)cc1Cl	inconclusive [cytotoxic, partial curve]	–
COc1ccc(OC)c(CN2CCN(S(=O)(=O)c3ccccc3)CC2)c1	inactive	–
O=C(/C=C/c1ccc(NC(=O)c2ccccc2-c2ccccc2C(=O)O)cc1)c1ccccc1	inconclusive [cytotoxic, single point]	–
COc1cccc(Nc2nc(C(N)Cc3ccc(Cl)cc3)cs2)n1 (stereo not drawn)	active: 23.1 µM	–
COc1ccc(N2c3ccccc3CN(Cc3ccccc3)[C@@H](C)[C@H]2Cc2cccnc2)cc1	inconclusive [cytotoxic, single point]	–
CC(C)(C)Nc1c(C2CCNCC2)nc2c(OCc3ccccc3)cccn12	inconclusive [cytotoxic, single point]	–
CCOc1ccc(N(CC(=O)NCc2ccccc2)C(=O)CCC(=O)Nc2nccs2)cc1	inactive	–
CC(C)(C)C1CCC(=NNc2ccc(S(N)(=O)=O)cc2[N+](=O)[O-])CC1 (stereo not drawn)	inconclusive [cytotoxic, single point]	–
COC(=O)C1=C(C)N(Cc2ccccc2)C(=NCCc2c[nH]c3ccccc23)N[C@H]1c1cccc(F)c1	inconclusive [cytotoxic, single point]	–
CC(=NNC(=S)SCc1ccccc1)c1ccccn1	inconclusive [cytotoxic, partial curve]	–
O=C1N/C(=C\c2ccc(O)cc2)C(O)=C1C=NCc1ccccc1	inconclusive [cytotoxic, full curve]	–
C/C(=N\NC(=O)Nc1ccccc1)c1ccc2ccccc2c1	–	inconclusive: -33.2% [cytotoxic]
CCOCCCNC(=O)/C(C#N)=C/c1cc(Br)c(O)c(Br)c1	active: 2.31 µM	–
CN1CCN(c2ncnc3c2ncn3[C@H]2CN(Cc3ccc(-c4ccccc4)cc3)C[C@@H](CO)O2)CC1	active: 18.4 µM	–
O=[N+]([O-])c1cccc(-c2csc(Nc3ccccc3)n2)c1	inconclusive [cytotoxic, single point]	–
